# Measurements published in the supplement of paper PMC8728848.
# This is one part of the list.
# B1: Banana lectin (Musa acuminata) (protein)
# chain: MNGAIKVGAHGGNGGSAFDMGPAYRIISVKIFSGDVVDGVDVTFTYYGKTETRHYGGSGGTPHEIVLQEGEYLVGMAGEVANYHGAVVLGKLGFSTNKKAYGPFGNTGGTPFSLPIAAGKISGFFGRGGKFLDAIGVYLEPLEHHHHHH
# Key:
# Assay in all cases: glycan array binding signal (z-score within array); higher = stronger binding
# Details in all cases: glycan notation: IUPAC condensed, linker removed; mutation: W10H
# [1] = biological target: Gal(b1-4)GlcNAc(b1-2)[Gal(b1-4)GlcNAc(b1-6)]Man(a1-6)[Gal(b1-4)GlcNAc(b1-2)Man(a1-3)]Man(b1-4)GlcNAc(b1-4)[Fuc(a1-6)]GlcNAc
# Summary of the method: (§1)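 From the Consortium for Functional Glycomics database, 3228 arrays were curated, keeping only those whose protein sequence was available. Binding is given as a within-array Z-score averaged across arrays sharing a protein sequence and across linkers. Negative Z-scores can be read as non-binding.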
# [2] = biological target: Gal(b1-4)GlcNAc(b1-2)[Gal(b1-4)GlcNAc(b1-6)]Man(a1-6)[GlcNAc(b1-4)][Gal(b1-4)GlcNAc(b1-2)Man(a1-3)]Man(b1-4)GlcNAc(b1-4)GlcNAc
# Summary of the method: as §1
# [3] = biological target: Gal(b1-4)GlcNAc(b1-2)[Gal(b1-4)GlcNAc(b1-6)]Man(a1-6)[GlcNAc(b1-4)][Gal(b1-4)GlcNAc(b1-2)[Gal(b1-4)GlcNAc(b1-4)]Man(a1-3)]Man(b1-4)GlcNAc(b1-4)[Fuc(a1-6)]GlcNAc
# Summary of the method: as §1
# [4] = biological target: Gal(b1-4)GlcNAc(b1-3)Gal(b1-3)GalNAc
# Summary of the method: as §1
# [5] = biological target: Gal(b1-4)GlcNAc(b1-3)Gal(b1-3)GlcNAc
# Summary of the method: as §1
# [6] = biological target: Gal(b1-4)GlcNAc(b1-3)Gal(b1-4)Glc
# Summary of the method: as §1
# [7] = biological target: Gal(b1-4)GlcNAc(b1-3)Gal(b1-4)GlcNAc
# Summary of the method: as §1
# [8] = biological target: Gal(b1-4)GlcNAc(b1-3)Gal(b1-4)GlcNAc(b1-2)Man(a1-3)[Gal(b1-4)GlcNAc(b1-3)Gal(b1-4)GlcNAc(b1-2)Man(a1-6)]Man(b1-4)GlcNAc(b1-4)GlcNAc
# Summary of the method: as §1
# [9] = biological target: Gal(b1-4)GlcNAc(b1-3)Gal(b1-4)GlcNAc(b1-2)Man(a1-3)[Gal(b1-4)GlcNAc(b1-3)Gal(b1-4)GlcNAc(b1-2)Man(a1-6)]Man(b1-4)GlcNAc(b1-4)[Fuc(a1-6)]GlcNAc
# Summary of the method: as §1
# [10] = biological target: Gal(b1-4)GlcNAc(b1-3)Gal(b1-4)GlcNAc(b1-2)[Gal(b1-4)GlcNAc(b1-3)Gal(b1-4)GlcNAc(b1-6)]Man(a1-6)[Gal(b1-4)GlcNAc(b1-3)Gal(b1-4)GlcNAc(b1-2)Man(a1-3)]Man(b1-4)GlcNAc(b1-4)GlcNAc
# Summary of the method: as §1
# [11] = biological target: Gal(b1-4)GlcNAc(b1-3)Gal(b1-4)GlcNAc(b1-2)[Gal(b1-4)GlcNAc(b1-3)Gal(b1-4)GlcNAc(b1-6)]Man(a1-6)[Gal(b1-4)GlcNAc(b1-3)Gal(b1-4)GlcNAc(b1-2)Man(a1-3)]Man(b1-4)GlcNAc(b1-4)[Fuc(a1-6)]GlcNAc
# Summary of the method: as §1
# [12] = biological target: Gal(b1-4)GlcNAc(b1-3)Gal(b1-4)GlcNAc(b1-3)Gal(b1-4)GlcNAc
# Summary of the method: as §1
# [13] = biological target: Gal(b1-4)GlcNAc(b1-3)Gal(b1-4)GlcNAc(b1-3)Gal(b1-4)GlcNAc(b1-2)Man(a1-3)[Gal(b1-4)GlcNAc(b1-3)Gal(b1-4)GlcNAc(b1-3)Gal(b1-4)GlcNAc(b1-2)Man(a1-6)]Man(b1-4)GlcNAc(b1-4)GlcNAc
# Summary of the method: as §1
# [14] = biological target: Gal(b1-4)GlcNAc(b1-3)Gal(b1-4)GlcNAc(b1-3)Gal(b1-4)GlcNAc(b1-2)Man(a1-3)[Gal(b1-4)GlcNAc(b1-3)Gal(b1-4)GlcNAc(b1-3)Gal(b1-4)GlcNAc(b1-2)Man(a1-6)]Man(b1-4)GlcNAc(b1-4)[Fuc(a1-6)]GlcNAc
# Summary of the method: as §1
# [15] = biological target: Gal(b1-4)GlcNAc(b1-3)Gal(b1-4)GlcNAc(b1-3)Gal(b1-4)GlcNAc(b1-2)[Gal(b1-4)GlcNAc(b1-3)Gal(b1-4)GlcNAc(b1-3)Gal(b1-4)GlcNAc(b1-6)]Man(a1-6)[Gal(b1-4)GlcNAc(b1-3)Gal(b1-4)GlcNAc(b1-3)Gal(b1-4)GlcNAc(b1-2)Man(a1-3)]Man(b1-4)GlcNAc(b1-4)[Fuc(a1-6)]GlcNAc
# Summary of the method: as §1
# [16] = biological target: Gal(b1-4)GlcNAc(b1-3)Gal(b1-4)GlcNAc(b1-3)Gal(b1-4)GlcNAc(b1-3)Gal(b1-4)GlcNAc(b1-2)Man(a1-3)[Gal(b1-4)GlcNAc(b1-3)Gal(b1-4)GlcNAc(b1-3)Gal(b1-4)GlcNAc(b1-3)Gal(b1-4)GlcNAc(b1-2)Man(a1-6)]Man(b1-4)GlcNAc(b1-4)GlcNAc
# Summary of the method: as §1
# [17] = biological target: Gal(b1-4)GlcNAc(b1-3)Gal(b1-4)GlcNAc(b1-3)Gal(b1-4)GlcNAc(b1-3)Gal(b1-4)GlcNAc(b1-2)Man(a1-3)[Gal(b1-4)GlcNAc(b1-3)Gal(b1-4)GlcNAc(b1-3)Gal(b1-4)GlcNAc(b1-3)Gal(b1-4)GlcNAc(b1-2)Man(a1-6)]Man(b1-4)GlcNAc(b1-4)[Fuc(a1-6)]GlcNAc
# Summary of the method: as §1
# [18] = biological target: Gal(b1-4)GlcNAc(b1-3)Gal(b1-4)GlcNAc(b1-3)Gal(b1-4)GlcNAc(b1-3)Gal(b1-4)GlcNAc(b1-2)[Gal(b1-4)GlcNAc(b1-3)Gal(b1-4)GlcNAc(b1-3)Gal(b1-4)GlcNAc(b1-3)Gal(b1-4)GlcNAc(b1-6)]Man(a1-6)[Gal(b1-4)GlcNAc(b1-3)Gal(b1-4)GlcNAc(b1-3)Gal(b1-4)GlcNAc(b1-3)Gal(b1-4)GlcNAc(b1-2)Man(a1-3)]Man(b1-4)GlcNAc(b1-4)[Fuc(a1-6)]GlcNAc
# Summary of the method: as §1
# [19] = biological target: Gal(b1-4)GlcNAc(b1-3)Gal(b1-4)GlcNAc(b1-3)Gal(b1-4)GlcNAc(b1-3)Gal(b1-4)GlcNAc(b1-3)Gal(b1-4)GlcNAc(b1-2)Man(a1-3)[Gal(b1-4)GlcNAc(b1-3)Gal(b1-4)GlcNAc(b1-3)Gal(b1-4)GlcNAc(b1-3)Gal(b1-4)GlcNAc(b1-3)Gal(b1-4)GlcNAc(b1-2)Man(a1-6)]Man(b1-4)GlcNAc(b1-4)GlcNAc
# Summary of the method: as §1
# [20] = biological target: Gal(b1-4)GlcNAc(b1-3)Gal(b1-4)GlcNAc(b1-3)Gal(b1-4)GlcNAc(b1-3)Gal(b1-4)GlcNAc(b1-3)Gal(b1-4)GlcNAc(b1-2)Man(a1-3)[Gal(b1-4)GlcNAc(b1-3)Gal(b1-4)GlcNAc(b1-3)Gal(b1-4)GlcNAc(b1-3)Gal(b1-4)GlcNAc(b1-3)Gal(b1-4)GlcNAc(b1-2)Man(a1-6)]Man(b1-4)GlcNAc(b1-4)[Fuc(a1-6)]GlcNAc
# Summary of the method: as §1
# [21] = biological target: Gal(b1-4)GlcNAc(b1-3)Gal(b1-4)GlcNAc(b1-3)Gal(b1-4)GlcNAc(b1-3)Gal(b1-4)GlcNAc(b1-3)Gal(b1-4)GlcNAc(b1-2)[Gal(b1-4)GlcNAc(b1-3)Gal(b1-4)GlcNAc(b1-3)Gal(b1-4)GlcNAc(b1-3)Gal(b1-4)GlcNAc(b1-3)Gal(b1-4)GlcNAc(b1-6)]Man(a1-6)[Gal(b1-4)GlcNAc(b1-3)Gal(b1-4)GlcNAc(b1-3)Gal(b1-4)GlcNAc(b1-3)Gal(b1-4)GlcNAc(b1-3)Gal(b1-4)GlcNAc(b1-2)Man(a1-3)]Man(b1-4)GlcNAc(b1-4)[Fuc(a1-6)]GlcNAc
# Summary of the method: as §1
# [22] = biological target: Gal(b1-4)GlcNAc(b1-3)Gal(b1-4)GlcNAc(b1-3)Gal(b1-4)GlcNAc(b1-3)Gal(b1-4)GlcNAc(b1-3)Gal(b1-4)GlcNAc(b1-3)Gal(b1-4)GlcNAc(b1-2)Man(a1-3)[Gal(b1-4)GlcNAc(b1-3)Gal(b1-4)GlcNAc(b1-3)Gal(b1-4)GlcNAc(b1-3)Gal(b1-4)GlcNAc(b1-3)Gal(b1-4)GlcNAc(b1-3)Gal(b1-4)GlcNAc(b1-2)Man(a1-6)]Man(b1-4)GlcNAc(b1-4)GlcNAc
# Summary of the method: as §1
# [23] = biological target: Gal(b1-4)GlcNAc(b1-3)Gal(b1-4)GlcNAc(b1-3)GalNAc
# Summary of the method: as §1
binder,measurement,setting,value
B1,glycan array binding signal (z-score),[1],-0.143
same,glycan array binding signal (z-score),[2],-0.204
same,glycan array binding signal (z-score),[3],-0.182
same,glycan array binding signal (z-score),[4],-0.184
same,glycan array binding signal (z-score),[5],-0.177
same,glycan array binding signal (z-score),[6],-0.13
same,glycan array binding signal (z-score),[7],-0.166
same,glycan array binding signal (z-score),[8],-0.132
same,glycan array binding signal (z-score),[9],-0.157
same,glycan array binding signal (z-score),[10],-0.113
same,glycan array binding signal (z-score),[11],-0.155
same,glycan array binding signal (z-score),[12],-0.19
same,glycan array binding signal (z-score),[13],-0.169
same,glycan array binding signal (z-score),[14],-0.152
same,glycan array binding signal (z-score),[15],-0.123
same,glycan array binding signal (z-score),[16],-0.127
same,glycan array binding signal (z-score),[17],-0.135
same,glycan array binding signal (z-score),[18],-0.097
same,glycan array binding signal (z-score),[19],-0.137
same,glycan array binding signal (z-score),[20],-0.16
same,glycan array binding signal (z-score),[21],-0.109
same,glycan array binding signal (z-score),[22],0.007
same,glycan array binding signal (z-score),[23],-0.141
